This is one part of the list. No stated cut-off is given here; in the data, active = 3.2 or more and inactive = the rest. The signal is at background level for most entries.
B1: CYTH1_Y382_A386T (peptide)
chain: SRDPFYEMLTA
B2: DARS1_Y253 (peptide)
chain: QSPQLYKQMCI
B3: DCC_Y809 (peptide)
chain: EGVPLYESATT
B4: DCC_Y809_G805E (peptide)
chain: EEVPLYESATT
B5: DCLK2_Y124_G119C (peptide)
chain: CVRTIYTIDGS
B6: DCTN4_Y263_Y263C (peptide)
chain: CASQLCPRHKH
B7: DCX_Y103_R102S_YF (peptide)
chain: PQGVSYIFTID
B8: DCX_Y105_I104T (peptide)
chain: GVRYTYTIDGS
B9: DCX_Y105_I104T_YF (peptide)
chain: GVRFTYTIDGS
B10: DCX_Y105_YF (peptide)
chain: GVRFIYTIDGS
B11: DCX_Y125 (peptide)
chain: EEGESYVCSSD
B12: DCX_Y64 (peptide)
chain: RNGDRYFKGIV
B13: DCX_Y64_N60D (peptide)
chain: RDGDRYFKGIV
B14: DCX_Y64_R59L (peptide)
chain: LNGDRYFKGIV
B15: DCX_Y70_G67E (peptide)
chain: FKEIVYAVSSD
B16: DDB1_Y718_P721L (peptide)
chain: RTVPLYESLRK
B17: DDR1_Y513_R514C (peptide)
chain: LSNPAYCLLLA
B18: DDR2_Y736_Y740C_YF (peptide)
chain: MSRNLYSGDCF
B19: DDR2_Y736_YF (peptide)
chain: MSRNLYSGDFF

biological target: SHP2 C-SH2 domain E139D; experiment: enrichment score (SH2-bound / input frequency) (ratio); bacterial display of known human phosphotyrosine sites (pTyr-Var adds point mutants) read by sequencing; higher = stronger binding; tyrosines were phosphorylated by kinases first; settings: peptide library: pTyr-Var
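Further: displayed peptides selected on beads carrying the immobilized SH2 domain, with library peptides lacking any tyrosine serving as negative controls.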

| Binder | enrichment score |
| --- | --- |
| B1 | inactive: 0.967 |
| B2 | inactive: 0.652 |
| B3 | inactive: 0.734 |
| B4 | inactive: 0.704 |
| B5 | inactive: 0.743 |
| B6 | inactive: 2.36 |
| B7 | inactive: 0.97 |
| B8 | inactive: 0.939 |
| B9 | inactive: 0.643 |
| B10 | inactive: 1.01 |
| B11 | inactive: 0.457 |
| B12 | inactive: 0.819 |
| B13 | inactive: 0.973 |
| B14 | inactive: 0.616 |
| B15 | inactive: 1.43 |
| B16 | inactive: 0.985 |
| B17 | inactive: 0.756 |
| B18 | inactive: 0.842 |
| B19 | inactive: 1.07 |

biological target: SHP2 C-SH2 domain wild-type; experiment: as above; settings: peptide library: pTyr-Var

| Binder | enrichment score |
| --- | --- |
| B1 | inactive: 0.891 |
| B2 | inactive: 0.712 |
| B3 | inactive: 0.579 |
| B4 | inactive: 0.768 |
| B5 | inactive: 0.938 |
| B6 | active: 3.23 |
| B7 | inactive: 1.11 |
| B8 | inactive: 2.38 |
| B9 | inactive: 0.733 |
| B10 | inactive: 1.31 |
| B11 | inactive: 0.721 |
| B12 | inactive: 0.745 |
| B13 | inactive: 0.858 |
| B14 | inactive: 0.492 |
| B15 | inactive: 0.938 |
| B16 | inactive: 0.781 |
| B17 | inactive: 0.784 |
| B18 | inactive: 0.96 |
| B19 | inactive: 0.875 |

biological target: SHP2 N-SH2 domain L43F; experiment: as above; settings: peptide library: pTyr-Var

| Binder | enrichment score |
| --- | --- |
| B1 | inactive: 0.877 |
| B2 | inactive: 0.504 |
| B3 | inactive: 0.655 |
| B4 | inactive: 0.646 |
| B5 | inactive: 0.838 |
| B6 | inactive: 2.49 |
| B7 | inactive: 0.903 |
| B8 | inactive: 0.863 |
| B9 | inactive: 0.707 |
| B10 | inactive: 1.26 |
| B11 | inactive: 0.58 |
| B12 | inactive: 0.65 |
| B13 | inactive: 0.758 |
| B14 | inactive: 0.671 |
| B15 | inactive: 1.17 |
| B16 | inactive: 0.76 |
| B17 | inactive: 0.722 |
| B18 | inactive: 0.624 |
| B19 | inactive: 0.837 |

biological target: SHP2 N-SH2 domain T42A; experiment: as above; settings: peptide library: pTyr-Var

| Binder | enrichment score |
| --- | --- |
| B1 | inactive: 0.828 |
| B2 | inactive: 0.612 |
| B3 | inactive: 0.624 |
| B4 | inactive: 0.575 |
| B5 | inactive: 0.616 |
| B6 | inactive: 2.22 |
| B7 | inactive: 1.5 |
| B8 | inactive: 2.72 |
| B9 | inactive: 0.876 |
| B10 | inactive: 1.08 |
| B11 | inactive: 0.522 |
| B12 | inactive: 0.7 |
| B13 | inactive: 0.831 |
| B14 | inactive: 0.6 |
| B15 | inactive: 1.02 |
| B16 | inactive: 0.719 |
| B17 | inactive: 0.581 |
| B18 | inactive: 0.586 |
| B19 | inactive: 0.87 |

biological target: SHP2 N-SH2 domain T52S; experiment: as above; settings: peptide library: pTyr-Var

| Binder | enrichment score |
| --- | --- |
| B1 | inactive: 1.01 |
| B2 | inactive: 0.473 |
| B3 | inactive: 0.744 |
| B4 | inactive: 0.53 |
| B5 | inactive: 0.683 |
| B6 | inactive: 2.5 |
| B7 | inactive: 1.03 |
| B8 | inactive: 0.995 |
| B9 | inactive: 0.818 |
| B10 | inactive: 1.18 |
| B11 | inactive: 0.54 |
| B12 | inactive: 0.665 |
| B13 | inactive: 0.887 |
| B14 | inactive: 0.784 |
| B15 | inactive: 1.46 |
| B16 | inactive: 0.651 |
| B17 | inactive: 0.627 |
| B18 | inactive: 0.789 |
| B19 | inactive: 0.835 |

biological target: SHP2 N-SH2 domain wild-type; experiment: as above; settings: peptide library: pTyr-Var

| Binder | enrichment score |
| --- | --- |
| B1 | inactive: 0.915 |
| B2 | inactive: 1.02 |
| B3 | inactive: 0.791 |
| B4 | inactive: 0.972 |
| B5 | inactive: 0.917 |
| B6 | inactive: 2.12 |
| B7 | inactive: 1.06 |
| B8 | inactive: 0.771 |
| B9 | inactive: 0.871 |
| B10 | inactive: 1.18 |
| B11 | inactive: 0.583 |
| B12 | inactive: 0.865 |
| B13 | inactive: 0.815 |
| B14 | inactive: 0.743 |
| B15 | inactive: 1.12 |
| B16 | inactive: 1.03 |
| B17 | inactive: 0.872 |
| B18 | inactive: 0.785 |
| B19 | inactive: 0.822 |
